Data on 51 molecules can be found in paper PMC12040169 (PLOS Biology, 2025).

Some of the results follow.

The assay concerns T1, C. trachomatis L2/434/Bu expressing GFP (CTL2-GFP).
T1 construct: L2/434/Bu GFP intracellular growth in HeLa cells
Set-up: species or system HeLa; C. trachomatis total inclusion area by high-content imaging, normalised to DMSO. The note with it: total inclusion area; 28.5 h, 10 µM; inhibitor. The method, boiled down: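 Following bulk GFP and resorufin fluorescence reads, infected cells were fixed, Hoechst-stained and imaged on a high-content platform. Inclusion total area and number per well served as growth proxies; nuclei counts indicated host viability. MICs were derived as for the fluorescence assay.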
For the molecule `CCOC(=O)[C@H]1CC[C@]2(CC1)CN(C)C(=O)c1ccccc1O2` [CBK284848], the “% of control remaining” value worked out at 90.4161. As for `Cc1cccc(NCC(O)Cn2c3ccc(Br)cc3c3cc(Br)ccc32)c1` (stereo not drawn) [CBK261419], the figure is 79.5114; as for `Cc1cc(C)n(CC2CCCCN2Cc2ccccn2)n1` (stereo not drawn) [CBK304853], 84.5554. As for `O=S(=O)(Nc1ccc(N2CCOCC2)cc1)c1cccc(OC(F)(F)F)c1` [CBK296759], the figure is 93.8598; as for `Cc1cc(N2CCC(N3CCN(C)CC3)CC2)nc(N)n1` [CBK167964], 20.8665; as for `O=C(NCc1ccccc1OC1CCNC1)c1ccc(-c2cccc(C(F)(F)F)c2)o1` (stereo not drawn) [CBK034151T], 64.5798. As to `O=C(NC1CCCC1)c1ccc(-n2ccnc2)c(-n2cccc2)c1` [CBK285368], the “% of control remaining” value turned out to be 104.768. Under `CSc1nc(NC(=O)Cc2c[nH]c3ccccc23)cc(N2CCNCC2)n1` [CBK050265T] stands 81.1341.

Take `CCOC(=O)N(C)c1c(CC)nc2ccc(C(=O)Nc3cc(-c4ccccc4)ccc3OC)cn12` [CBK145478]: the “% of control remaining” value is on record as 108.34. Turning to `O=C(Nc1cc(Cl)ccc1C(=O)O)c1ccc2c(c1)C(=O)N(Cc1cccnc1)C2=O` [CBK266455], the “% of control remaining” value is 112.346.

Consider `OCC1CCN(Cc2ccc(OC3CCCC3)cc2)C1` (stereo not drawn) [CBK282929], for which the “% of control remaining” value stood at 70.8619.

In the case of `O=C1CN(S(=O)(=O)c2ccc(NS(=O)(=O)c3ccc4ccccc4c3)cc2)CC(=O)N1` [CBK262513], the “% of control remaining” value came out at 112.854.

`Cc1ccc2c(c1)C(c1c[nH]c3ccccc13)(c1c[nH]c3ccccc13)C(=O)N2C` [CBK266401]: the “% of control remaining” value was 136.61.

Regarding `O=C(c1nccs1)C1CCN(C(=O)c2cccs2)CC1` [CBK284159], the “% of control remaining” value came to 68.3452.

Regarding `COC(=O)c1ccccc1NC(=O)COc1ccc(Br)c(C)c1` [CBK263152], the “% of control remaining” value was determined as 98.2391.

Take `Cc1ccn(CCNC(=O)c2[nH]c3c(Cl)cccc3c2C)n1` [CBK282608]: the “% of control remaining” value is on record as 135.398. Consider `CC(NS(=O)(=O)Cc1ccccc1Cl)C(=O)N1CCCCC1` (stereo not drawn) [CBK304928], for which the “% of control remaining” value is reported as 6.565. Under `COc1cccc(C(=O)N2CCC(c3cc4ncccc4[nH]3)CC2)c1` [CBK283398] stands 91.2551; under `CC(C)(C)c1ccc(OCC(O)Cn2c(CO)nc3ccccc32)cc1` (stereo not drawn) [CBK293973], 86.3244. As for `Cc1nnc(CN(CC2CCCO2)C2CCCC2)n1C1CC1` (stereo not drawn) [CBK304147], the figure is 79.4379; as for `COc1cc(/C(CS(C)(=O)=O)=N\O)cc(OC)c1OC` [CBK022984], 46.5336. As for `CCN(CC)c1ccc(C(=O)Cn2c(=O)n(S(=O)(=O)c3ccc4ccccc4c3)c3ccccc32)cc1` [CBK106505], the “% of control remaining” value is given as 94.9567. For `Cc1nn2c(=O)c(CCC(=O)O)c(C)[nH]c2c1-c1ccccc1` [CBK287011], the “% of control remaining” value is given as 100.253.

`CN1CCN(C(=O)Cn2cccc(C(=O)Nc3ccc(F)cc3)c2=O)C(c2ccccc2)C1` (stereo not drawn) [CBK286045]: the “% of control remaining” value is on record as 100.951.

Regarding `O=C(OCc1nc2cc3ccccc3cc2[nH]1)C1CCCCC1` [CBK018307], the “% of control remaining” value is listed as 46.9771. Consider `O=C(CN1CCOCC1)Nc1ccc(Cl)cc1C(=O)c1ccccc1` [CBK086450], for which the “% of control remaining” value amounted to 107.707. For `O=C(NCc1ccc(Cl)c(Cl)c1)N1CCCCC1CO` (stereo not drawn) [CBK156164], the “% of control remaining” value is recorded as 104.953. Under `O=C(c1ccc(F)cc1)N1CCN(c2ccccn2)CC1` [CBK287795] stands 85.8829; under `CC1CCc2c(sc3ncnc(SCC(=O)N(C)C)c23)C1` (stereo not drawn) [CBK305946], 34.636; under `CCc1c(C)nc2c(C(=O)NCc3cc(C)on3)cnn2c1C` [CBK162150], 52.9333.

As to `COc1ccc(OC)c2[nH]c(C(=O)N3CCCC34CC=CC4)cc12` [CBK282814], the “% of control remaining” value is reported as 116.936.

For `O=C(CCc1c[nH]c2ccccc12)OCc1nnc(-c2ccccc2)o1` [CBK269642], the “% of control remaining” value was 96.0822. For `CCc1c(C(=O)Nc2ccc3nc(C)cn3c2)cnc2cc(O)nn12` [CBK291178], the “% of control remaining” value is recorded as 111.672. `CN(C)Cc1ccccc1-n1ncc(-c2ccc(Br)cc2F)n1` [CBK112924]: the “% of control remaining” value was determined as 75.2018. Under `COc1ccc2occ(C(=O)c3ccc(N)cc3)c2c1` [CBK111303] stands 103.705; under `CS(=O)(=O)N1CC2(CCN(CCCOc3ccccc3)CC2)c2ccccc21` [CBK115457T], 46.4067; under `O=C1NC(=O)C(CC(=O)N2CCN(Cc3nc4ccccc4s3)CC2)S1` (stereo not drawn) [CBK295654], 112.182. Consider `CCCCC(=O)Nc1ccc(C(=O)N2CCN(C)CC2)cc1` [CBK304662], for which the “% of control remaining” value is recorded as 54.23. As for `Cc1ccccc1NCC(=O)N/N=C\c1cc(Br)c(O)c(Br)c1` [CBK262120], the figure is 105.556; as for `Cc1cccc(OCCNC(=O)CSc2n[nH]c(=O)n2C2CC2)c1` [CBK295599], 88.5765. As for `CC1(C)NC(=O)N(CC(O)CN2CCCC2)C1=O` (stereo not drawn) [CBK264558], the “% of control remaining” value was 98.2493. Under `Cc1ccc(NC(=O)NC(=O)C2CCN(CCc3ccc(F)cc3)CC2)cc1Cl` [CBK035047] stands 100.132; under `Fc1cccc(Cl)c1CN1CNC(=S)NC1` [CBK006480], 130.53; under `CC(C)c1ccc(OCCN2CCNCC2)cc1` [CBK266024C], 112.661. Regarding `COCC(=O)N[C@H]1CCN2C(=O)c3cc(-c4ccccc4F)ccc3NC(=O)[C@@H]2C1` [CBK289553], the “% of control remaining” value is given as 84.3356.

As for `c1ccc(N2CCN(C3c4ccccc4Sc4ccccc43)CC2)cc1` [CBK066894], the “% of control remaining” value is 91.526. Under `Fc1cc(F)c(OCCCCOc2nccnc2N2CCNCC2)cc1F` [CBK028624T] stands 79.1148; under `CCN1CCN(C(=O)C2CC(C)=C(C)CC2C(=O)O)CC1` (stereo not drawn) [CBK270311], 113.33.

For `CCNC(=O)NC1CC(C)(C)Cc2c1cnn2-c1ccc(OC)cc1` (stereo not drawn) [CBK307313], the “% of control remaining” value stood at 64.9625.

In the case of `CCOc1cccc(-c2cn3ccnc3c(N(C)CCN(C)C)n2)c1` [CBK066569], the “% of control remaining” value worked out at 120.706. On to `COc1cc(CNC(=O)c2cnoc2-c2ccc(Br)cc2)cc(OC)c1OC` [CBK154893], for which the “% of control remaining” value was 100.284.
